Measured values: patent US20230322822A1, “ARYL PHOSPHOROUS OXIDE COMPOUNDS AND USE THEREOF” (Chengdu Di'ao Jiuhong Pharmaceutical Factory, priority 2020, published 2023)

Columns and labels:
Format in all cases: biochemical
Conditions in all cases: kinase
[1] = target: EGFR-Del19 (Homo sapiens, UniProt P00533); assay: Enzymatic activity test (ADP-Glo) EGFR-Del19
Experimental: (§1) • 1. […] Test information:
(§2) To assess the effect of compounds on the activity of wild-type and mutant EGFR kinases, kinase activity was tested by measuring ATP consumption in an enzymatic reaction using an ADP-Glo (Promega Corporation) kit. Samples to be tested were dissolved in DMSO and diluted in a gradient. In a microplate, an EGFR kinase, a reaction buffer (containing Tris-HCl with a pH of 7.5, MgCl2, DTT and BSA), a kinase substrate Poly(Glu4, Tyr1) and a sample (a total volume of 20 μL per well) were added per well, while a blank control (no enzyme and sample) and a negative control (no sample) were set up; incubated for 15 minutes at 23° C.; added with 5 μL of ATP, and reacted at 23° C. for 60 minutes; added with ADP-Glo Reagent, and continuously reacted for 40 minutes at room temperature to inactivate the redundant ATP; then, added with a Kinase Detection Reagent, and reacted at room temperature for 30 minutes, then the chemiluminescence intensity L of each well was measured. […] IC50 values were calculated according to the above calculation using 4Parameter Logistic Model in XLfit software. • 3.

[2] = target: EGFR-T790M/L858R (Homo sapiens (Human), UniProt P00533, L858R/T790M); assay: Enzymatic activity test (ADP-Glo) EGFR-T790M/L858R
Experimental: as §1, §2

[3] = target: EGFR-T790M/Del19 (Homo sapiens, UniProt P00533, T790M, form not given); assay: Enzymatic activity test (ADP-Glo) EGFR-T790M/Del19
Experimental: as §1, §2

EGFR-Del19, sequence (P00533 25-1210 limits assumed): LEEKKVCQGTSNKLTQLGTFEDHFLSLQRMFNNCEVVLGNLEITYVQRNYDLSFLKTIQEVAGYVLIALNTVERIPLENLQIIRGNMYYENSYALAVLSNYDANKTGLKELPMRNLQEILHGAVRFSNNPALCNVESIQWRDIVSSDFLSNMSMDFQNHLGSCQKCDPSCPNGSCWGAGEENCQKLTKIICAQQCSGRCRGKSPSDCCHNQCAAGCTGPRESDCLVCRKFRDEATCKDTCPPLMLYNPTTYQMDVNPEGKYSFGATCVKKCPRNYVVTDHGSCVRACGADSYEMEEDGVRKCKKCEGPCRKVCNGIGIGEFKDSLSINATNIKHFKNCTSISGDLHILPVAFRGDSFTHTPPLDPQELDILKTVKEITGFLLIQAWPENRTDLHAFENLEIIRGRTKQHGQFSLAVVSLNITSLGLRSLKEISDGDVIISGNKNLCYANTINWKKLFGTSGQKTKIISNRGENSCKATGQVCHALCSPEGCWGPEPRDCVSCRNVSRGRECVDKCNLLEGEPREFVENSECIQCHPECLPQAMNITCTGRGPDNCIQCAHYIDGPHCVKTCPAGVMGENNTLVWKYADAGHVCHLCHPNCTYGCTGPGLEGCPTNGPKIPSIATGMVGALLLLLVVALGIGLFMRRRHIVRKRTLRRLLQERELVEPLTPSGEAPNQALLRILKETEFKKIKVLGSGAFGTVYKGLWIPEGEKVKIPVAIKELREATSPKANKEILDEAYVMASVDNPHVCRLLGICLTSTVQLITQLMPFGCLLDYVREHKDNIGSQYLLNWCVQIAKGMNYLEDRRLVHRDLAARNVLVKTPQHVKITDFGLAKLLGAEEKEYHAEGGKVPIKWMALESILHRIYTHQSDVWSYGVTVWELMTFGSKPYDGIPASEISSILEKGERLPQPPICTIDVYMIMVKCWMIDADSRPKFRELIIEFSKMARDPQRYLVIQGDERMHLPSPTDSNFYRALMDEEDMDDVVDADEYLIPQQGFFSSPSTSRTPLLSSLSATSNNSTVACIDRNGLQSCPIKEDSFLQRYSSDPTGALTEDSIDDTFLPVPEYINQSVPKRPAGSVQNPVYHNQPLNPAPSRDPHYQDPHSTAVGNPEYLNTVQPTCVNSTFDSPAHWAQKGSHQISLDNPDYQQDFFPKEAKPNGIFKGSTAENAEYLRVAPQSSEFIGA
EGFR-T790M/L858R, sequence (P00533 25-1210 T790M/L858R): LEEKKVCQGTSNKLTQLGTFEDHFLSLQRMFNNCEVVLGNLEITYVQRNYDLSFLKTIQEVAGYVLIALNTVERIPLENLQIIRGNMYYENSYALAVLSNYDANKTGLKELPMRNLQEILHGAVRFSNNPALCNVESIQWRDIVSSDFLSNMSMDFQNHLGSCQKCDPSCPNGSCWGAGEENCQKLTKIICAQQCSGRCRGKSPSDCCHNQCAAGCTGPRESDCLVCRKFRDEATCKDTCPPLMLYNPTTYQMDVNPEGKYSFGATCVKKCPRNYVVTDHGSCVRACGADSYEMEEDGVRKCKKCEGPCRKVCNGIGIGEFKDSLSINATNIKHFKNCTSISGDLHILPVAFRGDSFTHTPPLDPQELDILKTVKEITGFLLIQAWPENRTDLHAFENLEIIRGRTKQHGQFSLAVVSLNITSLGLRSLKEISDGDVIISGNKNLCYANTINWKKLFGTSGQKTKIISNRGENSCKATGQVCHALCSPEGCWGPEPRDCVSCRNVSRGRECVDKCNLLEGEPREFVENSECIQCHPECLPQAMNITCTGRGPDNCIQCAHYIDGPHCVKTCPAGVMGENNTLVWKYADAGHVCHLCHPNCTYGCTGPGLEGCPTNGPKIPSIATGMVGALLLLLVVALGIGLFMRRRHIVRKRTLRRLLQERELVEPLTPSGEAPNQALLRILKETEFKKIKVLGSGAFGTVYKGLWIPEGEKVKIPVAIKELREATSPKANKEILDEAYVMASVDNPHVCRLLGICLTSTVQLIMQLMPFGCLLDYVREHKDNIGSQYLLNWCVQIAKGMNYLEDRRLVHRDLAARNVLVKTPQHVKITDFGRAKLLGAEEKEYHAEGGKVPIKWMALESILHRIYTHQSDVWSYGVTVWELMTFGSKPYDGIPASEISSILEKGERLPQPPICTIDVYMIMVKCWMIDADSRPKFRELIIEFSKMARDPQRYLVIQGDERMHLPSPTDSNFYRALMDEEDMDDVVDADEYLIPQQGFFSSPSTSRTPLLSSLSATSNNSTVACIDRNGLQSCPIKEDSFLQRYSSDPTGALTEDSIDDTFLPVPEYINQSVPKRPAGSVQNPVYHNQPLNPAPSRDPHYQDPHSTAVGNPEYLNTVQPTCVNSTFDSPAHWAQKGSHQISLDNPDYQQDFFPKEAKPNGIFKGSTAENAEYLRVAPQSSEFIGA

SMILES	pIC50 [1]	pIC50 [2]	pIC50 [3]
COc1cc(N2CCC(N(C)C)CC2)c(C)cc1Nc1ncc(Cl)c(Nc2ccc(C)cc2P(C)(C)=O)n1 [Compound 5]	7.43	–	–
COc1cc(N2CCC(N3CCN(C)CC3)CC2)c(C)cc1Nc1ncc(Cl)c(Nc2ccc(C)cc2P(C)(C)=O)n1 [Compound 1]	7.69	7.86	8.39

pIC50: −log10 of the molar value.
